Source: PubChem BioAssay AID2546 (National Center for Advancing Translational Sciences (NCATS), 2010)
About 11,000 (3.5%) of roughly 310,000 compounds were called active. This list was built around the results that the source calls inconclusive (neither active nor inactive); the mix of calls is not that of the screen. Calls follow the shape of the dose curve; as a rule, active = well fitted inhibition curve with a large enough effect; inconclusive = small, poorly fitted or top-dose-only effect, or effect the other way; inactive = flat fitted curve, though single readings scatter. Potencies of inconclusive entries are left out as doubtful fits.

assay: VP16 counterscreen qHTS for inhibitors of ROR gamma transcriptional activity; details: Drosophila S2 Gal4-VP16 UAS-luciferase, luminescence, 20 h; activity, negative = inhibition: at 53.6 µM (top of the series);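 also: Gal4-VP16 expression switched on by copper sulfate through the metallothionein promoter; nearly all actives have a fitted effect of over 50% in size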
% is scaled to controls: 0 for no effect and ±100 for the full control effect; potency is read from the fitted curve at half-maximal effect; tags tell the direction and shape of the fitted curve.

| SMILES | activity, negative = inhibition | Potency |
| --- | --- | --- |
| COc1ccc(S(=O)(=O)c2ccc(O)cc2)cc1 | inactive: -1.75% | – |
| CN(C)S(=O)(=O)c1cccc(COC(=O)C2=COCCO2)c1 | inactive: -17.3% | – |
| CCOc1ccc2cc(C(=O)c3ccccc3)c(=O)oc2c1 | inactive: -6.06% | – |
| COc1ccc(CNC(=O)N2CCN(c3ccccc3OC)CC2)cc1 | inactive: -5.58% | – |
| O=c1c2c3c(sc2ncn1/N=C/c1ccncc1)CCCC3 | – | inconclusive [activator, single point] |
| COc1ccc(NS(=O)(=O)c2ccc(-n3cnnn3)cc2)cc1OC | – | active: 10 µM |
| Cc1ccc(C(=O)N/N=C/c2ccc(-c3cccc(C(F)(F)F)c3)o2)cn1 | – | active: 10 µM |
| COc1ccc(-c2noc(C3CCCN(S(=O)(=O)c4ccc(C)c(Cl)c4)C3)n2)cc1OC (centres undefined) | inactive: 2.05% | – |
| O=C1OC(c2ccc(Cl)cc2)=C/C1=C/c1cccnc1 | inactive: 0.759% | – |
| CCc1ccc(C(=O)CSc2n[nH]c(-c3ccncc3)n2)cc1 | – | active: 11.2 µM |
| COc1cc(CNc2ccc3[nH]c(=O)[nH]c3c2)cc(Br)c1OCc1ccc(F)cc1 | – | inconclusive [inhibitor, single point] |
| C=CCOc1ccc(/C=C2/C(=O)ON=C2C)cc1OC | – | inconclusive [inhibitor, single point] |
| O=C(NCCc1ccccc1)c1ccc2c(c1)OCCO2 | – | active: 1.26 µM |
| Oc1cccc2ccc(/C=C/c3ccc(Br)s3)nc12 | – | inconclusive [inhibitor, full curve, poor fit] |
| O=C(CCN1CCCC1Cc1ccccc1)c1ccc2c(c1)OCCO2 (centres undefined) | – | active: 5.62 µM |
| Cc1ccc(S(=O)(=O)N2CCOCC2)cc1C(=O)Nc1ccc(-c2cn3ccsc3n2)cc1 | inactive: 21% | – |
| Cc1cccc(/C(N)=N/OC(=O)c2ccoc2C)c1 | – | inconclusive [inhibitor, single point] |
| COC(=O)COc1c(Cl)cc(Cl)c2ccc(C)nc12 | – | active: 22.4 µM |
| CC1(C)[C@@H](O)CC[C@]2(C)C3C(O)C=C4[C@H]5C[C@@](C)(C(=O)O)CC[C@]5(C)CC[C@]4(C)[C@]3(C)CC[C@@H]12 (some centres undefined) | inactive: -0.0431% | – |
| O=C(CN1CCOCC1)NNC(=S)Nc1ccccc1 | – | active: 1.26 µM |
| O=C(CSc1nnc2ncccn12)N1CCCCCC1 | inactive: -0.6% | – |
| COc1ccc(/C=C/C(=O)c2ccc(NS(=O)(=O)c3ccc(C)cc3)cc2)cc1O | – | inconclusive [inhibitor, single point] |
| CCOC(=O)c1ccc(NC(=O)NCc2ccccc2OC)cc1 | – | inconclusive [inhibitor, single point] |
| CCn1c(/N=C/c2ccc(OC)cc2O)nc2ccccc21 | – | inconclusive [inhibitor, single point] |
| CC(C)(C)OC(=O)N1CC=C2C(C#N)=C(N)C(C#N)(C#N)C(c3cccs3)C2C1 (centres undefined) | – | inconclusive [inhibitor, single point] |

| SMILES | activity, negative = inhibition | Potency |
| --- | --- | --- |
| CCS(=O)(=O)N1Cc2ccccc2CC1C(=O)Nc1nc2c(C)cccc2s1 (centres undefined) | – | active: 5.62 µM |
| CC(C)OC(=O)CN1C(=O)S/C(=C/c2ccc(N3CCCCC3)o2)C1=O | – | active: 12.6 µM |
| CCCCC(=O)NC(c1ccccc1Cl)c1ccc2cccnc2c1O (centres undefined) | – | active: 3.55 µM |
| CC(C)([CH2][Sn]([CH2]C(C)(C)c1ccccc1)([CH2]C(C)(C)c1ccccc1)[O][Sn]([CH2]C(C)(C)c1ccccc1)([CH2]C(C)(C)c1ccccc1)[CH2]C(C)(C)c1ccccc1)c1ccccc1 | inactive: -14.7% | – |
| COc1cc(/C=C2\SC(=S)N(CCC(=O)Nc3ccccc3O)C2=O)cc(OC)c1OC | – | inconclusive [inhibitor, single point] |
| CSc1nc(N2CCOCC2)c2c(c1C#N)CC(C)(C)OC2 | inactive: -22.9% | – |
| c1c2c(cc3sc(N4CCCCC4)nc13)OCO2 | – | active: 11.2 µM |
| CC(C)=CCc1c2c(c3occ(-c4ccc(O)c(O)c4)c(=O)c3c1O)C=CC(C)(C)O2 | – | inconclusive [inhibitor, single point] |
| Cc1cccnc1NC(=S)NC(=O)c1oc2ccccc2c1C | – | active: 6.31 µM |
| COc1cccc(N(C(=O)CS(=O)CC(=O)Nc2ccc(F)cc2)C(C(=O)NC2CCCCC2)c2cccs2)c1 (centres undefined) | – | inconclusive [inhibitor, full curve, poor fit] |
| O=C(Nc1ccc2c(c1)ncn2C1CCCCC1)c1ccco1 | inactive: 8.61% | – |
| O=C(/C=C\c1cn(-c2ccccc2)nc1-c1ccccc1)Nc1nccs1 | – | inconclusive [inhibitor, single point] |
| CN(c1ccccc1)S(=O)(=O)c1ccc(NC(=S)NC(=O)C2CC2)cc1 | – | inconclusive [inhibitor, single point] |
| Cc1ccc(C(=O)N/N=C/C=C/c2ccccc2)cc1 | – | active: 7.94 µM |
| Cc1cc(SC(C)C(=O)NCC(=O)Nc2ccc(F)c(F)c2F)nc2ccccc12 (centres undefined) | – | inconclusive [inhibitor, single point] |
| CCC(=O)N1CCN(c2ccc(NC(=S)NC(=O)c3cc4ccccc4o3)cc2)CC1 | – | active: 3.98 µM |
| COc1ccc(C(=O)/C=C/Nc2ccc(C)cn2)cc1OC | inactive: -26.7% | – |
| OCCNCc1cc(Br)ccc1OCc1ccccc1Cl | – | inconclusive [inhibitor, single point] |
| Cc1ccc(C2(CC(=O)Nc3nccs3)CCOC(C(C)C)C2)cc1 (centres undefined) | – | inconclusive [inhibitor, single point] |
| COC(=O)c1[nH]c(C)c(/C(O)=C2\C(=O)C(=O)N(CCCN3CCOCC3)C2c2ccccn2)c1C (centres undefined) | inactive: -1.76% | – |
| CC(C)c1ccccc1OCC(O)CN(CC(O)COc1cccc2ccccc12)C(C)C (centres undefined) | – | inconclusive [inhibitor, single point] |
| CC1Cc2ccccc2N1C(=O)CSc1nnc(-c2ccc(S(=O)(=O)N3CCCC3)cc2)n1C (centres undefined) | – | inconclusive [activator, single point] |
| CCOCCCNC(=O)C(NC(=O)c1ccc2c(c1)OCO2)c1ccc(Cl)cc1 (centres undefined) | inactive: 1.8% | – |
| O=C(NCc1ccco1)c1cc(S(=O)(=O)N2CCCc3ccccc32)ccc1Cl | inactive: -0.059% | – |
